The supplement of paper PMC11417369
± gives the standard deviation of the averaged measurements. Some of the results follow.

The sequences below were run on PfAP2-I AP2 domain 3 (GST-tagged) (assay: gcPBM binding intensity (ln(normalized median fluorescence intensity)); higher = stronger DNA binding).
Outline: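 In this array assay, P. falciparum DNA-binding domains with a GST tag, expressed in E. coli, were applied for 1 h to primer-extended double-stranded 36-bp intergenic genomic probes and negative controls on an Agilent 4 × 180k array. Bound protein was visualised with Alexa488 anti-GST antibody at 488 nm. Binding intensity is the highest Masliner-normalised natural-log median intensity across replicate spots of either probe orientation.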

Sequence | gcPBM binding intensity (ln)
AAAGAAAATTAAAAAGAACACACAAATATATATATA [CACACA_site9196] | 9.06 ± 0.17
AGTATACTCAAACACACACACACAAAAAAAAAAAAA [CACACA_site4398] | 8.04 ± 0.68
TAAGAAATAAATAGTACACACATAGACACCCACCGA [CACACA_site1516] | 8.86 ± 0.15
ACAATATTATTATTTAACCATACACAATTATATGTC [XGTACX_negctrl_site378] | 7.66 ± 0.62
GTAATATTAATATAATGTACAAAATGAAACATATAT [XGTACX_site6219] | 7.71 ± 0.57
CAGTTTAATTTACATAGTACATAATATTTTAATTTT [XGTACX_site1793] | 7.66 ± 0.2
CAAAAAGATAAGGTGTGTACGTATTATAATTTTAAA [XGTACX_site531] | 8 ± 0.34
TGAAATGATCTTTAGTTGCACTTAAAAATATATATA | 8.8 ± 0.23
ATTTAATTTTCCAAATGTACTTATATTTTTATGAAA [XGTACX_site6144] | 7.79 ± 0.28
TAGATACATAAACACACACACACATACATATATACA [CACACA_site9139] | 7.88 ± 0.33
GGTATATAAAAATATTGTACTTAAAAAAATATGTAT [XGTACX_site6253] | 7.83 ± 0.42
TATTTCACTTTTTGTCTGCACTAAAATTTTATGGTA | 9.46 ± 0.32
AAGTATAGTCTTACATATATATATATATATATATAT [GTGCAC_negctrl_site280] | 9.36 ± 0.74
AAAAAAAAAAAAAACACACACATATATATAATATAT [CACACA_site3172] | 8.07 ± 0.11
TTTTGACTAATATAATATGTTAAGAATTAATAAATA [XGTACX_negctrl_site35] | 7.21 ± 0.39
TAAAAAAGAAAATATATACACACCAAAAAAAAAAAA [CACACA_site3146] | 7.92 ± 0.76
ATTAAATCCGCACGCACACACACATATTAATAAAAA [CACACA_site3992] | 8.96 ± 0.13
ACATGTCTTAAAAGACGTACATATAAAAGAACCCTA [XGTACX_site8940] | 7.95 ± 0.2
AATATTAAAGAATAATGTACAAAATAAAAGCAAAGA [XGTACX_site3550] | 8.22 ± 0.3
AAACAAAAAAATTGAAATAAAATGAAGTAAATGAAC [TGCATGCA_negctrl_site129] | 8.21 ± 0.67
TTATTTTTTAAAAGTAGTACAAATTTTTATAGAAAA [XGTACX_site7407] | 7.91 ± 0.31
ATTCCTTGGTTGTATAGTACTTTGGTTAAACATAAA [XGTACX_site6967] | 8.03 ± 0.6
TATCTCATAGTATACACACACACACGCGCACATATA [CACACA_site6917] | 8.34 ± 0.67

Sequence | gcPBM binding intensity (ln)
TGTATATATTATATTTGTACATATAAAACTATATGT [XGTACX_site4782] | 7.67 ± 0.45
TTAAATATATGTAATACGCACACTTAATATTTTGAG [CACACA_site4170] | 8.18 ± 0.35
AAAAAAAAAAAAAAAACATGCAATAAAGTGTGCGTA [TGCATGCA_site982] | 8.81 ± 0.75
TTTTGGTGGGTTACAAGTACTCAAAATGGATTGTTA [XGTACX_site1951] | 8.66 ± 0.17
TTTCGAAAAACAACAAGAAAAAAAAAAAAAAAAAAA [XGTACX_negctrl_site449] | 8.14 ± 0.73
TCACATACATTACTTACACACCATATTGATATATAC [CACACA_site6353] | 8.14 ± 0.69
CAAAATATTTATATCACACATATAAATAAAAATAAA [CACACA_site6028] | 7.59 ± 0.43
ATTAACATTTTCGTATGTACATATATAATATATGTT [XGTACX_site7184] | 8.05 ± 0.32
TTTCCAAATACAACTACACACAAACAAAAATTATAT [CACACA_site4641] | 7.92 ± 0.63
ATGTTTATTTATTTATGTACTTATATATTTATATAT [XGTACX_site7924] | 7.97 ± 0.41
AATAAAAATAAAAATTGTACACTTTTTTAATATTTA [XGTACX_site892] | 7.53 ± 0.34
AATGTGCACACGCGTACACACAAAAAAAGAAAAAAA [CACACA_site7031] | 9.31 ± 0.31
TATTATTTGAGTAGTTGTACTCATTAATATATAAAA [XGTACX_site3468] | 7.63 ± 0.46
TATTAATTTCACCTTTCACATATGGAAAAAAAAAAA [CACACA_negctrl_site1243] | 7.96 ± 0.62
AAGAAAAAGACTTCATGAAAAAGAATTTTTTTAATT [TGCATGCA_negctrl_site473] | 7.36 ± 0.76
TTATAATCAATGAATACACACATATATTTAATTAAT [CACACA_site3613] | 7.45 ± 0.53
AATTTTCCATAGATTGTGCACAAATTTTTATTTTGT | 10.9 ± 0.2
ATATATTTTTTTTTTATTTTATTATTATAATTTATC [XGTACX_negctrl_site16] | 7.58 ± 0.69
ATTTTATTTTTTTGAAGTACGAATTCCGAGAAGAAA [XGTACX_site43] | 8.02 ± 0.22
TATTCAAAAATATAAACAATGAAACAGTATAATATG [CACACA_negctrl_site1482] | 7.75 ± 0.54
TATAGTTCTTCTATTTGTACATATATTATTATTTAA [XGTACX_site895] | 7.73 ± 0.48
ATATATCAAGGGAGTGAATGTTATGCATATGAATAT [TGCATGCA_negctrl_site573] | 7.82 ± 0.83
AATAAATTAAATAAAAATGTTTAACATAAAATATGA [GTGCAC_negctrl_site373] | 7.5 ± 0.42

Sequence | gcPBM binding intensity (ln)
GGATATTATATAAAGTGTACAAGACAAATATATACA [XGTACX_site8173] | 7.85 ± 0.47
AAATTAACAAACTGTAGTACTAACAATATATACAAA [XGTACX_site1772] | 7.84 ± 0.49
ATTATAATTATCAAGGTGCGTGTATTATAATAAATA [GTGCAC_site9917] | 8.64 ± 0.33
TAATATAATAATAATTGTACTTTTCATAGTGTAATT [XGTACX_site8152] | 7.64 ± 0.36
AAAAAAAAAAAACACACACACAAAATAAACAAACAA [CACACA_site2721] | 7.92 ± 0.28
AAAGAAATGAAATATACACACATACATATATACATA [CACACA_site9335] | 7.54 ± 0.5
AATTAAAAAAGTAATTAACACACAATAATGTAATGC [CACACA_site9388] | 7.75 ± 0.68
GTTCTGTAAATACGTGCACACACAAATCACAAATGT [CACACA_site7999] | 10.7 ± 0.16
TTTTTTTTCTTTTTTTGTACATAATAATATATAAAT [XGTACX_site6778] | 7.68 ± 0.35
GATATATTTTATATATGTACATACAATGGTAAATAT [XGTACX_site2759] | 7.97 ± 0.54
TATTCTTACAAAAGTAGTACAATCATTCATATTTTT [XGTACX_site631] | 7.76 ± 0.3
AAAAATGAAAAATGAAAAATGAAAAATGAAAAATAA [CACACA_negctrl_site695] | 7.87 ± 0.24
TAGTTTCAAGTAGGACGTACATATAAAAGGATTTTT [XGTACX_site7136] | 7.91 ± 0.57
TATATATATATAATTGTGCACATAATTTTAAACCAA | 11.1 ± 0.13
TATGTGTGAAAAAAATGTACATATATATAAATTATA [XGTACX_site7202] | 7.88 ± 0.36
ATATATATATATAATAGTACATATATTTTGAAAGAT [XGTACX_site5800] | 8.96 ± 0.13
AACTGTAAAAAATATAAACACACATAGAAATATATA [CACACA_site8002] | 7.66 ± 0.61
TATTTTACACATTTACGTACATAAATATATATATAT [XGTACX_site8788] | 9.175 ± 0.064
TACGCACAAAAATATACACACACACCGATATATTTA [CACACA_site9213] | 7.78 ± 0.42
AGACATTTTTAAGCAAAACATTCATCATCTTATAAT [CACACA_negctrl_site1539] | 7.76 ± 0.63
CTAACAACCAAACGCACACACACAAAAAAAAAAATA [CACACA_site400] | 8.625 ± 0.049
TTTGAAATGATATATAAACACACATATATATATATA [CACACA_site9170] | 9.52 ± 0.18
AACAACTATTAATTTACACACATGTATATATCTTAC [CACACA_site7459] | 7.88 ± 0.79

Sequence | gcPBM binding intensity (ln)
TATTAAAAGGTGAGTACACACATATATGCGTATATA [CACACA_site2102] | 7.99 ± 0.19
ATATTGAATTCCAACACATGCAAAACTTTCGGTTTT [TGCATGCA_site485] | 7.79 ± 0.6
TCTATGTAGTTTTTATGTACTAAATAAATAAATAAA [XGTACX_site2599] | 7.94 ± 0.54
TAGAAGCAGAAACACACACACATACATACACATACA [CACACA_site1467] | 7.91 ± 0.4
ACTATTAACAGTGTAGTGCAAAAAGGTTAATTATTA | 10.5 ± 0.34
TAAATGTCCTTATTTGCACACACACCGATAAGAAAT [CACACA_site5723] | 9.79 ± 0.15
TTTTCAATATATATTTGTACTTTATTTTATGATATT [GTGCAC_negctrl_site732] | 7.75 ± 0.6
GCATTCATTTTTAATACACACAAAAAAAAAATAAAA [CACACA_site2408] | 8.09 ± 0.15
TACATATATATTTGTTCACACACACCCAAAAAAAAA [CACACA_site8788] | 8.2 ± 0.37
TTCTTTTATAAAAGTAGTACAATTATATTGTAATTA [XGTACX_site2855] | 7.915 ± 0.064
TCTTTTATATTGTAGAGTACATATTTTCAATATATA [XGTACX_site5586] | 7.76 ± 0.35
GTGATACGCTATAGGACACACGCTTAATAATTATAA [CACACA_site1694] | 7.84 ± 0.3
AAATTGTCAAAACACGCACACACATATACATAATAA [CACACA_site1743] | 8.23 ± 0.54
ATCATAAATTATTATACACACAATACGTGACCTATT [CACACA_site1906] | 8.06 ± 0.62
TTTTAAGGTGTGAAGGTGCAAAAAGGTAAATAGGAA | 11.2 ± 0.56
AAAATACATAAACACACACACACACCGATATATATA [CACACA_site9186] | 8.28 ± 0.67
CACAAACACCCAAACACACACACACCGACATACATA [CACACA_site4410] | 7.97 ± 0.4
TAAACAGAAGCACATACACACACTCAAAAAAAAAAA [CACACA_site3051] | 8.18 ± 0.53
AAAAAAAAAAAAGGCACACAAACATATGTAGACATA [CACACA_site2284] | 8.09 ± 0.32
TCGTGTGTAATATTATATATATATATATAATATATA [TGCATGCA_negctrl_site289] | 8.38 ± 0.15
